Measurements published in article PMC6919601, “Identification of Plasmodium dipeptidyl aminopeptidase allosteric inhibitors by high throughput screening” (PLoS ONE, 2019).
Hit rate of the full screen: of about 110,000 compounds, about 230 (0.21%) showed an effect of 50% or more. Some of the results follow.

Each molecule was assayed against DPAP1 (Plasmodium falciparum, UniProt Q8IIJ9) (assay: primary screen, percent inhibition; read by cleavage of a fluorogenic dipeptide substrate; higher = more effect of the substance).
Set-up: species or system P. falciparum D10 trophozoite lysates; single well
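Further: 30 min substrate incubation versus DMSO and 10 µM JCP410 controls.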

Sequence of DPAP1 (Q8IIJ9 whole entry, looked up): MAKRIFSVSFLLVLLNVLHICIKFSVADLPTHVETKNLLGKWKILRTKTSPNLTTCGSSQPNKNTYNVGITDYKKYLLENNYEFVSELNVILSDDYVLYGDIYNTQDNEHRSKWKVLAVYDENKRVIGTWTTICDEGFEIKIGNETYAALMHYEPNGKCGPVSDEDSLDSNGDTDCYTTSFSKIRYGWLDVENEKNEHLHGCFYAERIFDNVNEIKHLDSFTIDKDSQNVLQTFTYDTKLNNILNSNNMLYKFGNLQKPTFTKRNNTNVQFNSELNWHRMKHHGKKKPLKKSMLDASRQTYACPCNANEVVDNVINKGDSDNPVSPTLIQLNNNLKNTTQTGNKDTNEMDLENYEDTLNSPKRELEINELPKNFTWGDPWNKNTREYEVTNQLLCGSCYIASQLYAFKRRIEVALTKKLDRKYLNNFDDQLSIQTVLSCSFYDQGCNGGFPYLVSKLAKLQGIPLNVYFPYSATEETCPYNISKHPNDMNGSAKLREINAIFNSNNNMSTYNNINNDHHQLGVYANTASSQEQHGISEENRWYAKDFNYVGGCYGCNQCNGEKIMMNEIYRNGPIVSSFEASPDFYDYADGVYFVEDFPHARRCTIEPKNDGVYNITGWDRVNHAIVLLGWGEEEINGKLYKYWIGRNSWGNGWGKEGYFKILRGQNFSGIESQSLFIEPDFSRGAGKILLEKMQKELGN

| SMILES | % Inhibition @ 10 uM |
| --- | --- |
| CSC1=C(C#N)C(c2ccc(Cl)cc2)C(C(C)=O)=C(C)N1 (stereo not shown) | 4.33% |
| CC(CCc1ccccc1)NC(=O)C1CCN(c2nnc(-n3cccc3)s2)CC1 (stereo not shown) | 2.76% |
| COc1ccc(C(=O)NCc2cccc3ccccc23)c(OC)n1 | 1.88% |
| O=C1c2ccccc2C(=O)N1OCCCCNC(=O)C(F)(F)F | 4% |
| CCC(C)NC(=O)c1ccccc1NC(=O)c1ccc(Cl)cc1 (stereo not shown) | 2.98% |
| Clc1ccc(N2N=C(c3ccccc3)CC2c2ccccc2)cc1 (stereo not shown) | -9.87% |
| Cc1cccc(C(=O)N[C@@H](CC2CCCCC2)C(=O)NCC#N)c1 | 1.35% |
| O=C(Nc1ccc(Cl)cc1)Nc1ccccc1C(=O)Nc1ccccc1 | -1.75% |
| O=C1ON=C(c2ccc(Cl)cc2)/C1=C\c1ccc2c(c1)OCO2 | -8.79% |
| NC(=O)C1CCCN(Cc2ccc(F)c(Br)c2)C1 (stereo not shown) | -5.65% |
| Cc1cccn2c(=O)c3cc(C(=O)NCCN4CCOCC4)n(C)c3nc12 | -2.52% |
| CN(c1c(-c2ccccc2)c(=O)c1=O)C1CCCCC1 | -9.49% |
| CCOC(=O)c1cc(-c2ccc(C)cc2)n(CCC(=O)Nc2nc(C)cs2)c1C | 0.0579% |
| O=C(CCCOc1ccc(Cl)cc1Cl)N1CCN(C(c2ccccc2)c2ccccc2)CC1 | 4.61% |
| COCCNC(=O)c1c(NC(=O)c2cc(=O)c3cc(C)ccc3o2)sc2c1CCCC2 | -5.31% |
| CCC1=C(c2ccc(C)cc2)S(=O)(=O)N=C1N1CCC(C(=O)NCCN2CCN(C)CC2)CC1 | 5.13% |
| O=C(COc1ccccc1F)Nc1nc(-c2ccc(S(=O)(=O)N3CCCCCC3)cc2)cs1 | 0.231% |
| COc1ccc(OCCCCN2CCCC2)cc1 | -8.01% |
| Fc1ccc(-c2noc3ncnc(NCCc4ccsc4)c23)cc1 | -5.55% |
| CCOC(=O)c1cnc(Nc2nc3ccccc3o2)nc1-c1ccccc1 | 3.93% |
| c1ccc2c(CN3CCSCC3)c[nH]c2c1 | -6.21% |
| O=C(O)c1ccc(NC(=O)c2ccccc2C(=O)O)cc1 | -1.29% |
| CCC1(CC(=O)c2ccccc2)C(=O)NC(=O)NC1=O | -4.96% |
| N#C/C(=C\Nc1cc(Cl)ccc1O)c1nc2cc(Cl)ccc2o1 | -1.37% |
| CC(C)(C)C1CCC(NCC2CCCO2)CC1 (stereo not shown) | 0.217% |

| SMILES | % Inhibition @ 10 uM |
| --- | --- |
| COc1cccc(N(CC(=O)Nc2cccc(C)c2)S(=O)(=O)c2ccccc2)c1 | 3.86% |
| N#CCCOc1cccc(OCCC#N)c1 | -3.66% |
| COc1cc(Br)ccc1NC(=O)c1cccc2c1-c1ccccc1C2=O | 3.43% |
| O=C(/C=C/c1ccco1)NCCN1CCOCC1 | 2.6% |
| O=C(CCCN1C(=O)c2ccccc2C1=O)NCc1nc(-c2ccccc2)no1 | -4.82% |
| Cc1ccc2cc3cc(C(=O)N4CCCCC4C)oc3nc2c1 (stereo not shown) | -5.22% |
| CCCN1C(=O)[C@@H]2[C@H](C1=O)[C@H](C(=O)c1ccccc1)N1c3ccccc3C=C[C@@H]21 | 0.161% |
| CCOc1cc(C2C3=C(O)CC(C)(C)CC3=Nc3ccc4ncccc4c32)ccc1O (stereo not shown) | -2.88% |
| Cc1ccccc1N1C(=O)S/C(=C2\C(=O)Nc3ccccc32)C1=O | 1.92% |
| Cc1cc(N2C(=O)C(O)=C(C(=O)c3ccco3)C2c2ccc(C(C)(C)C)cc2)no1 (stereo not shown) | 17.4% |
| O=C(O)c1cn(C2CC2)c2cc(N3CCOCC3)c(F)cc2c1=O | 3.69% |
| c1ccc2c(c1)CCN(CCCNc1nc3ccccc3n3nnnc13)C2 | 4.33% |
| COc1ccc(C(=O)Nc2cccc(C)c2)cc1OC | 1.48% |
| CC1=CC2=NC(=O)/C(=C\c3ccc(OCCCOc4ccc(Cl)cc4)cc3)C(=N)N2O1 | -5.1% |
| O=C1CCCC2=C1C(c1ccc(Cl)cc1Cl)C1=C(CCCC1=O)O2 | -1.03% |
| CCOP(C)(=O)CN1CCCC1C(=O)OC (stereo not shown) | 0.716% |
| Cc1nc2ccccc2nc1SCC(=O)O | 1.05% |
| N#CC1=C(N)Oc2[nH]nc(-c3cccs3)c2C1c1ccc(F)c(Br)c1 (stereo not shown) | -1.06% |
| COc1ccc(C(=O)Nc2cccc(NC(=O)CCc3ccccc3)c2)cc1OC | -5.13% |
| O=S(=O)(c1ccccc1F)N1CCC(c2nc3ccccc3s2)CC1 | -4.67% |
| CCC(CC)C(=O)Nc1c(-c2ccccc2)nc2cc(C)ccn12 | 7.85% |
| COc1cccc(C2=NS(=O)(=O)N(C)C(C(=O)N3CCCC3)=C2)c1 | 3.92% |
| CCOc1ccc(/C=C2\N=C(c3cccs3)OC2=O)cc1 | -2.5% |
| COc1ccccc1-c1coc2c(CN(C)C3CCCCC3)c(O)ccc2c1=O | 23.4% |
